“And” between values parts separate entries of the source, which are not always exact repeats. Equal values may be shown once.
Columns and labels:
[1] = biological target: PF-7802-labelled proteins in ARPE-19 cells (Homo sapiens, UniProt P36776); conditions: protein LONP1 Lon protease homolog, mitochondrial (P36776); replicates in separate columns
[2] = biological target: T1, PF-7802-labelled proteins in ARPE-19 cells (Homo sapiens, UniProt P60660); conditions: for Median SILAC Ratio (Heavy/Light): protein MYL6 Myosin light polypeptide 6 (P60660), replicates in separate columns
T1 sequence (P60660 1-151): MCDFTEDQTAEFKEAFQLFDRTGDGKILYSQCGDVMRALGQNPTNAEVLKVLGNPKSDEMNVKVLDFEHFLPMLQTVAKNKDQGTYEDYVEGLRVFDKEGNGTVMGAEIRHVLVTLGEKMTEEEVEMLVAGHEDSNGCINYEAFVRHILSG

[3] = biological target: PF-7802-labelled proteins in ARPE-19 cells (Homo sapiens, UniProt P61313); conditions: protein RPL15 60S ribosomal protein L15, P61313
[4] = biological target: PF-7802-labelled proteins in ARPE-19 cells (Homo sapiens, UniProt P61026); conditions: protein RAB10 Ras-related protein Rab-10, P61026
Chain of UniProt P61026 (P61026 whole entry): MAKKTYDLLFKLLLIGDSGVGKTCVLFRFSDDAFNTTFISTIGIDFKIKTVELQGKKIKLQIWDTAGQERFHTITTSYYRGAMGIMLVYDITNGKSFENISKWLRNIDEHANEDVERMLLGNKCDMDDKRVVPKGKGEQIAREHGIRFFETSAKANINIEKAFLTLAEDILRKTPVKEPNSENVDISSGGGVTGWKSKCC

[5] = biological target: PF-7802-labelled proteins in ARPE-19 cells (Homo sapiens, UniProt P19367); conditions: protein HK1 Hexokinase-1 (P19367); one column per replicate
Chain of UniProt P19367 (P19367 whole entry): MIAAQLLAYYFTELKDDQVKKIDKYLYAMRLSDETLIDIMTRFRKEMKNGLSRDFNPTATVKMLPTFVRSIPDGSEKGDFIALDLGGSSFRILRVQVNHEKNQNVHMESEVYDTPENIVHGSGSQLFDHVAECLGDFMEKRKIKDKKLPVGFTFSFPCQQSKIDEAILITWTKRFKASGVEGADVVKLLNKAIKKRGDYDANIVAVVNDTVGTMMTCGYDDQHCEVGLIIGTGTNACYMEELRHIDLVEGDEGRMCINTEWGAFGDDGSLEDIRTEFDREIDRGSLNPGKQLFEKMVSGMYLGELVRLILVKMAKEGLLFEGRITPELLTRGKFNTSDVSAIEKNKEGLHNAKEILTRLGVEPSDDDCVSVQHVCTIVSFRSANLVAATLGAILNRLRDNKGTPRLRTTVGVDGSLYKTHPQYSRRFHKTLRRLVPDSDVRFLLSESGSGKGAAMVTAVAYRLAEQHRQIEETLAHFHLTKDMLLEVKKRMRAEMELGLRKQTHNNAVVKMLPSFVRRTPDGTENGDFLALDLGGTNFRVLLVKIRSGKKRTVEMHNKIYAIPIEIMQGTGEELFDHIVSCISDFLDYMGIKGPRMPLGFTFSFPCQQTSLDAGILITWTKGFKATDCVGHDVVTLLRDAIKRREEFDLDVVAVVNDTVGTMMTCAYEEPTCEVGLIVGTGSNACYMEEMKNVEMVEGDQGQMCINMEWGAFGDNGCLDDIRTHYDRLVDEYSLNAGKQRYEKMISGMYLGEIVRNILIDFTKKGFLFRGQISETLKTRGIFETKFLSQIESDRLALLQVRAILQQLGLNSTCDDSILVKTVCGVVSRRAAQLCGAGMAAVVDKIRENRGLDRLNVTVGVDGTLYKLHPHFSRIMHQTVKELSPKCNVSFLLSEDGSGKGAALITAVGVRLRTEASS

[6] = biological target: T2, PF-7802-labelled proteins in ARPE-19 cells (Homo sapiens, UniProt P50990); conditions: for Median SILAC Ratio (Heavy/Light): protein CCT8 T-complex protein 1 subunit theta (P50990)
T2 sequence (P50990 1-548): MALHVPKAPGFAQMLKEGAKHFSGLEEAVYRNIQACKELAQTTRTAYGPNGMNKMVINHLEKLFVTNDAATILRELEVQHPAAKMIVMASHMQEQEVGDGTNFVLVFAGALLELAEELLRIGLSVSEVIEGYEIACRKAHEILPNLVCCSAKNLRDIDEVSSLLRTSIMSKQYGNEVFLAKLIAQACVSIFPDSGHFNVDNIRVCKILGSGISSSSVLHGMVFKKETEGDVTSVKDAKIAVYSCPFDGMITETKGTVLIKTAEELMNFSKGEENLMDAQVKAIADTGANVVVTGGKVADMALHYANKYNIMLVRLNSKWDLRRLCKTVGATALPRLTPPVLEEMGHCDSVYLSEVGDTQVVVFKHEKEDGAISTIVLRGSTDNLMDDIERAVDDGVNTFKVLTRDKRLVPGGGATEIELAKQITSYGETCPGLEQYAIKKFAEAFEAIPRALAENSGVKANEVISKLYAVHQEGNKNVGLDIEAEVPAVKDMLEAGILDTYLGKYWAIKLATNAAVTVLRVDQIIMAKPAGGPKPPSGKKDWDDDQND

[7] = biological target: PF-7802-labelled proteins in ARPE-19 cells (Homo sapiens, UniProt P78527); conditions: for Median SILAC Ratio (Heavy/Light): protein PRKDC DNA-dependent protein kinase catalytic subunit, P78527
[8] = biological target: PF-7802-labelled proteins in ARPE-19 cells (Homo sapiens, UniProt Q9UPN3); conditions: for Median SILAC Ratio (Heavy/Light): protein MACF1 Microtubule-actin cross-linking factor 1, isoforms 1/2/3/5 (Q9UPN3), replicates in separate columns
[9] = biological target: PF-7802-labelled proteins in ARPE-19 cells (Homo sapiens, UniProt P35268); conditions: protein RPL22 60S ribosomal protein L22, P35268
[10] = biological target: PF-7802-labelled proteins in ARPE-19 cells (Homo sapiens, UniProt P55072); conditions: for Median SILAC Ratio (Heavy/Light): VCP Transitional endoplasmic reticulum ATPase (P55072)
Chain of UniProt P55072 (P55072 whole entry): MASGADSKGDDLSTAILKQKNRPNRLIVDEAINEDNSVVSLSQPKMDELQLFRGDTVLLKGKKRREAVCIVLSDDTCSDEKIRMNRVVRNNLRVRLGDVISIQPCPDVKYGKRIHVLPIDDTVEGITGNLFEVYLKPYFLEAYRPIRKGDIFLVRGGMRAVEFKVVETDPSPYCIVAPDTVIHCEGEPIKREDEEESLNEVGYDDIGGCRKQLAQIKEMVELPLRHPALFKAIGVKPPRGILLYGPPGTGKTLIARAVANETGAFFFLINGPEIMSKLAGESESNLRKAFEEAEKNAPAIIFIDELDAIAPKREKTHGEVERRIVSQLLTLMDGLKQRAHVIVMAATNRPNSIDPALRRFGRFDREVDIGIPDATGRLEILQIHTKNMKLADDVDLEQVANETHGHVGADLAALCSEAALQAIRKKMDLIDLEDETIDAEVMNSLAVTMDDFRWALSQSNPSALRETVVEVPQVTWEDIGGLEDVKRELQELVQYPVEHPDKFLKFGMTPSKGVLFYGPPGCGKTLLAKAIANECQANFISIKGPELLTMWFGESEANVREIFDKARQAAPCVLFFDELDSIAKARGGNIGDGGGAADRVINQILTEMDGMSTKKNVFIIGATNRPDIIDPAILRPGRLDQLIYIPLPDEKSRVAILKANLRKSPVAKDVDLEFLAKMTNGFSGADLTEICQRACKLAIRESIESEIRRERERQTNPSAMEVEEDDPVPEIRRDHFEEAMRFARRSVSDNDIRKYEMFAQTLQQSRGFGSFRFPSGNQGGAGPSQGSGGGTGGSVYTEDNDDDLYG

[11] = biological target: PF-7802-labelled proteins in ARPE-19 cells (Homo sapiens, UniProt Q53GQ0); conditions: protein HSD17B12 Estradiol 17-beta-dehydrogenase 12 (Q53GQ0); one column per replicate
Chain of UniProt Q53GQ0 (Q53GQ0 whole entry): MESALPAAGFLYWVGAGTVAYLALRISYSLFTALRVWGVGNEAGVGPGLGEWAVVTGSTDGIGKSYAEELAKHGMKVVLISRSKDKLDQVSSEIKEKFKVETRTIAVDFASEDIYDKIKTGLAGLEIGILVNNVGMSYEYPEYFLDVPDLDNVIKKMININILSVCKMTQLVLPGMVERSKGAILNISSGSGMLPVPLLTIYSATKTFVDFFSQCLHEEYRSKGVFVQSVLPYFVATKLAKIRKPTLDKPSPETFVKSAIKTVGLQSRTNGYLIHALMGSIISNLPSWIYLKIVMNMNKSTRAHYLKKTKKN

[12] = biological target: T3, PF-7802-labelled proteins in ARPE-19 cells (Homo sapiens, UniProt Q15417); conditions: for Median SILAC Ratio (Heavy/Light): protein CNN3 Calponin-3 (Q15417)
T3 sequence (Q15417 1-329): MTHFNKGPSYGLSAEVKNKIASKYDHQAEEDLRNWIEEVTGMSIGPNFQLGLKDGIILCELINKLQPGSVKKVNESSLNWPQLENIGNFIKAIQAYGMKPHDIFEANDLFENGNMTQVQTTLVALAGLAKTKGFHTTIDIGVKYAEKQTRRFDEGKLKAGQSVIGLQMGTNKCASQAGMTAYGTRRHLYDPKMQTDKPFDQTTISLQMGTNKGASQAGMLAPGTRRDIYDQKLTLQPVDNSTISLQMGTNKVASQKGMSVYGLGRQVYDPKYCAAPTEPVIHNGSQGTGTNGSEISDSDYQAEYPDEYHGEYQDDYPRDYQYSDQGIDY

Compound | Median SILAC Ratio (Heavy/Light) [1] | SILAC ratio (DMSO/CP-108671) ([2]; P60660 MYL6 Myosin light polypeptide 6) | Median SILAC Ratio (Heavy/Light) [2] | Median SILAC Ratio (Heavy/Light) [3] | Median SILAC Ratio (Heavy/Light) [4] | Median SILAC Ratio (Heavy/Light) [5] | SILAC ratio (DMSO/CP-108671) ([6]; P50990 CCT8 T-complex protein 1 subunit theta) | Median SILAC Ratio (Heavy/Light) [6] | SILAC ratio (DMSO/CP-108671) ([7]; P78527 PRKDC DNA-dependent protein kinase catalytic subunit) | Median SILAC Ratio (Heavy/Light) [7] | SILAC ratio (DMSO/CP-108671) ([8]; Q9UPN3 MACF1 Microtubule-actin cross-linking factor 1, isoforms 1/2/3/5) | Median SILAC Ratio (Heavy/Light) [8] | Median SILAC Ratio (Heavy/Light) [9] | SILAC ratio (DMSO/CP-108671) ([10]; P55072 VCP Transitional endoplasmic reticulum ATPase) | Median SILAC Ratio (Heavy/Light) [10] | Median SILAC Ratio (Heavy/Light) [11] | SILAC ratio (DMSO/CP-108671) ([12]; Q15417 CNN3 Calponin-3) | Median SILAC Ratio (Heavy/Light) [12]
CNC1CCN(C(=O)C[C@@H](Cc2ccccc2)C(=O)N[C@@H](CSC)C(=O)N[C@@H](CC2CCCCC2)[C@@H](O)C(=O)OC(C)C)CC1 [CP-108671, reference compound] | 1.098 | 0.50 | 1.998 | 1.858 | 1.926 | 1.139 | 0.75 | 1.327 | 1.14 | 0.876 | 0.79 | 1.273 | 1.377 | 0.64 | 1.56 | 0.8548 | 0.76 | 1.324
Cc1cc([C@H]2C[C@H]3[C@@H](C)SC(N)=N[C@@]3(c3ccc(F)cc3F)CO2)on1 [PF-9283] | 1.403 | – | 1.895 and 1.122 | 1.885 and 1.232 and 1.67 | 1.403 | 1.415 | – | 1.569 | – | 1.2187 | – | 1.5705 | 1.087 and 0.9147 | – | 1.513 | 2.536 and 1.387 | – | 1.3664 and 0.8422 and 1.24
